Measurements from PubChem BioAssay AID2147 (National Center for Advancing Translational Sciences (NCATS), 2009).
The whole screen tested about 230,000 compounds, of which about 3,600 (1.6%) were called active. The shares of active, inactive and inconclusive entries below differ from those in the screen. The call rests on the fitted dose curve; in most records, active means well fitted inhibition curve with a large enough effect (not every such curve was filed as active); inconclusive means small, poorly fitted or top-dose-only effect, or another doubt; inactive means no such curve, though single readings can be large or run the other way. Potencies of inconclusive entries are doubtful fits and often do not repeat.

molecular target: Lysine-specific demethylase 4E (Homo sapiens) (UniProt B2RXH2); assay: qHTS Assay for Inhibitors of Human Jumonji Domain Containing 2E (JMJD2E); conditions: JMJD2E catalytic domain, FDH-coupled NADH fluorescence (FDH is formaldehyde dehydrogenase); series mostly up to 57.1 µM; activity change, negative = inhibition: at the top concentration
UniProt B2RXH2, sequence (B2RXH2 whole entry, looked up, the tested form may be a part): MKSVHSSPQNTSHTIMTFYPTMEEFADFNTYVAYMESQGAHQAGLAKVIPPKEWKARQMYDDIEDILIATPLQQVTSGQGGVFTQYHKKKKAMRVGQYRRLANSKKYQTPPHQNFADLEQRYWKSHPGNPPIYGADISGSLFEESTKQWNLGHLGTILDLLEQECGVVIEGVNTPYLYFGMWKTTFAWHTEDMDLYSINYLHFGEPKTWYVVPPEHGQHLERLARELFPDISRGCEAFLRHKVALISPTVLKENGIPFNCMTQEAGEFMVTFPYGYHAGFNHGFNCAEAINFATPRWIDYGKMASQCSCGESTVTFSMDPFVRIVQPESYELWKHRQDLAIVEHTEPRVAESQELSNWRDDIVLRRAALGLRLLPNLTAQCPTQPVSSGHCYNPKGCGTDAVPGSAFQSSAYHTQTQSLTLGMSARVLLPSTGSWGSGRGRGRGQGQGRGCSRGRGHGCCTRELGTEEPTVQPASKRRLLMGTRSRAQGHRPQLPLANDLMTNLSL
Further: nearly all actives have a fitted effect of over 50% in size.
Potency means the concentration at half of the fitted maximal effect; tags describe the fitted curve by direction and shape.
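Wherever activity change, negative = inhibition is given: 0% = wells with enzyme and -100% = buffer wells without enzyme.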

| SMILES | activity change, negative = inhibition | Potency |
| --- | --- | --- |
| COC(=O)c1c(NC(=O)c2ccco2)sc(C(=O)N2CCCC2)c1C | inactive: 3.4% |  |
| CC1(C)CC(=O)C2=C(C1)c1c(ccc3ncccc13)NC2c1cccs1 (stereo not drawn) |  | inconclusive: 22.4 µM [inhibitor, partial curve] |
| CCCCCCCCCCCCCCCCCC(=O)OC(CC(=O)O)C[N+](C)(C)C (stereo not drawn) | inactive: 10.5% |  |
| CC(C)(C)Sc1ccc(N)nc1 |  | inconclusive: 28.2 µM [inhibitor, single point] |
| COc1ccc(/C=C2\SC(=S)N(NC(=O)c3ccncc3)C2=O)cc1OC | inactive: -2.13% |  |
| COC(=O)c1ccc(CNC(=O)COC(=O)c2cc(Cl)nc(Cl)c2)cc1 | inactive: -1.87% |  |
| COc1cc(O)cc2cc3c(c(O)c12)C(=O)CC(C)(O)O3 (stereo not drawn) |  | inconclusive: 39.8 µM [inhibitor, single point] |
| COc1ccc(/C=C2\CCCC3C2=NC(=S)NC3c2ccc(OC)cc2)cc1 (stereo not drawn) |  | inconclusive: 31.6 µM [inhibitor, single point] |
| O=C(Nc1ccc(N2CCCCC2)cc1)c1ccc(F)cc1 | inactive: 5.68% |  |
| NC(=NCCc1ccccc1)NS(=O)(=O)c1ccc2ccccc2c1 | inactive: 2.54% |  |
| CCN(CC)C(=O)c1cn(C)c(=O)c2cc(OC)c(OC)cc12 |  | inconclusive: 25.1 µM [inhibitor, single point] |
| CCN(CC)CCCNc1oc(-c2cccc(Cl)c2)nc1C#N |  | inconclusive: 14.1 µM [inhibitor, partial curve] |
| CCOC(=O)Cc1csc(NC(=O)NC2(C(F)(F)F)Oc3ccccc3O2)n1 |  | inconclusive: 15.8 µM [inhibitor, partial curve] |
| CN(C)c1cccc2c(/C=N/O)ccc(N(C)C)c12 |  | inconclusive: 35.5 µM [inhibitor, single point] |
| COc1cc(/C=C(\C#N)c2nc3ccccc3[nH]2)cc(Br)c1OCc1ccccc1 |  | inconclusive: 25.1 µM [inhibitor, single point] |
| N#CCCS(=O)(=O)c1ccccc1 | inactive: 16.6% |  |
| COc1ccc2c(c1OC)C(=O)OC2CC(=O)O (stereo not drawn) |  | inconclusive: 22.4 µM [inhibitor, partial curve] |
| N#CCSc1nc2ccccc2c2nc3ccccc3n12 |  | inconclusive: 12.6 µM [inhibitor, partial curve] |
| S=c1[nH]c2ccc3ccccc3c2[nH]1 |  | inconclusive: 31.6 µM [inhibitor, partial curve] |
| COc1ccc(-c2oc3ncn4nc(Cc5ccccc5)nc4c3c2-c2ccc(OC)cc2)cc1 |  | inconclusive: 0.631 µM [inhibitor, full curve] |
| CCCS(=O)(=O)c1c(S(=O)(=O)CCC)c2ccc(C(C)=O)cn2c1C(=O)OC |  | inconclusive: 28.2 µM [inhibitor, partial curve] |
| CCNC(=S)N/N=C1\C(=O)c2cccc3cccc1c23 | inactive: -1.99% |  |
| O=C(Cn1cnc2ccccc2c1=O)Nc1ccc(N2CCOCC2)cc1 | inactive: 12.1% |  |
| COc1cc(OC)nc(/N=C/NO)n1 | inactive: 2.54% |  |

| SMILES | activity change, negative = inhibition | Potency |
| --- | --- | --- |
| Cc1ccc(N(CC(=O)NC(C)(C)C)C(=O)CNC(=O)c2cccs2)cc1C | inactive: -11.2% |  |
| O=c1c2c(nc3cc(-c4ccccc4)[nH]n13)CCC2 |  | inconclusive: 31.6 µM [inhibitor, partial curve] |
| O=C1COc2ccc(C(=O)CCl)cc2N1 | inactive: 0.73% |  |
| COC(=O)c1sccc1NC(=O)c1cc(C)on1 |  | inconclusive: 35.5 µM [inhibitor, single point] |
| CC1(C)CC(NC(=S)Nc2ccc(S(N)(=O)=O)cc2)CC(C)(C)N1 | inactive: 2.85% |  |
| COc1ccc(C(Nc2ccccn2)c2oc(CO)cc(=O)c2O)cc1 (stereo not drawn) |  | inconclusive: 25.1 µM [inhibitor, single point] |
| CCC(C)NCCCCOc1ccc(C)cc1[N+](=O)[O-] (stereo not drawn) | inactive: -17% |  |
| N#CCCn1cc(/C=N/NC(=O)c2ccncc2)c(-c2ccc(F)cc2)n1 | inactive: 0.562% |  |
| CCN1C=C(Cc2cccs2)C2=C(C1)C(c1cccs1)C(C#N)=C(N)O2 (stereo not drawn) |  | inconclusive: 25.1 µM [inhibitor, single point] |
| C=CCSc1nccc(-c2nn(-c3ccc(C)cc3)ccc2=O)n1 |  | inconclusive: 39.8 µM [inhibitor, single point] |
| Cc1cccc(-n2c3nc(=O)[nH]c(=O)c-3cc3c(C)nn(-c4ccccc4)c32)c1 |  | inconclusive: 35.5 µM [inhibitor, single point] |
| Fc1ccccc1CNCCC(Cc1ccccc1)c1ccc2c(c1)OCO2 (stereo not drawn) | inactive: 9.17% |  |
| O=C(Nc1ccc2[nH]c(=O)[nH]c2c1)c1ccc(Cl)c(Cl)c1 |  | inconclusive: 25.1 µM [inhibitor, single point] |
| Cc1cnc(C)c(N2CCN(Cc3cn(C)nc3-c3cccc(Cl)c3)CC2)n1 |  | inconclusive: 31.6 µM [inhibitor, partial curve, poor fit] |
| CCC(SC1=N/C(=C/c2ccccc2)C(=O)N1c1ccccc1)C(=O)Nc1cc(C)on1 (stereo not drawn) |  | inconclusive: 35.5 µM [inhibitor, single point] |
| COC(=O)c1ccc(C(NC(=O)OCc2ccccc2)/C(I)=C/[C@@H](C)C(=O)NCc2ccncc2)cc1 (stereo partly drawn) | inactive: -6.29% |  |
| Cn1cc(/C=N\NC(=O)c2cccs2)c2ccccc21 |  | inconclusive: 35.5 µM [inhibitor, single point] |
| Cn1cccc1/C=N/n1c(-c2ccc(Cl)cc2Cl)n[nH]c1=S | inactive: -1.74% |  |
| COc1ccc(N2CCC(CNC(=O)Nc3ccc(OC)cc3OC)C2)cc1 (stereo not drawn) |  | inconclusive: 39.8 µM [inhibitor, single point] |
| COc1ccc(C=O)cc1OS(=O)(=O)c1ccccc1[N+](=O)[O-] | inactive: 2.07% |  |
| CCSc1nnc(NC(=O)/C=C/c2ccco2)s1 |  | inconclusive: 39.8 µM [inhibitor, single point] |
| CCOc1cc(/C=C2\N=C(SCC)SC2=O)cc([N+](=O)[O-])c1OC(C)=O | inactive: -8.5% |  |
| Cc1cc2cc(CN(CC3CCCO3)C(=S)NCc3ccco3)c(=O)[nH]c2cc1C (stereo not drawn) |  | inconclusive: 28.2 µM [inhibitor, single point] |
| CCn1c(SCC(=O)N2CCCCC2)nnc1-c1ccc(S(=O)(=O)N2CCN(C)CC2)cc1 |  | inconclusive: 25.1 µM [inhibitor, partial curve] |
